Source: US5770618A, “Method for increasing the solubility of clemastine and pharmaceutical compositions prepared therefrom” (Nastech Pharmaceutical Company, Inc., priority 1996, dated 1998)
Where a name gives a salt, the structure may show the parent alone. Read-outs that look alike come from different tables or passages of the source.

Key:
[1] = 24 h
physchem [2] = details: water
physchem [3] = assay: physchem

SMILES | Clemastine Fumarate Solubility ([1]; sodium fumarate 0.25 m, pH 6.2) [µg/mL] | Clemastine Fumarate Solubility ([1]; sodium fumarate 0.5 m, pH 6.4) [µg/mL] | Clemastine Fumarate Solubility ([1]; sodium maleate 1.0 m, pH 6.8) [µg/mL] | Clemastine Fumarate Solubility (acetate buffer 0.5 m, pH 5.7) [µg/mL] | Clemastine Fumarate Solubility (citrate buffer 0.5 m, pH 5.8) [µg/mL] | solubility thermodynamic at 24 h (physchem [2]) [µg/mL] | solubility at 24 h (physchem [2]; pH 3.9, water) [µg/mL] | solubility thermodynamic at 24 h (physchem [3]; aqueous carboxylic acid salts 0.25m) [µg/mL] | solubility thermodynamic at 24 h (physchem [3]; aqueous carboxylic acid salts 0.5m) [µg/mL] | solubility at 24 h (physchem [3]; sodium lactate 0.25 m, pH 5, Clemastine Fumarate Solubility) [µg/mL] | solubility at 24 h (physchem [3]; sodium lactate 0.5 m, pH 5.1, Clemastine Fumarate Solubility) [µg/mL] | solubility at 24 h (physchem [3]; sodium tartarate 0.25 m, pH 5.1, Clemastine Fumarate Solubility) [µg/mL]
CN1CCC[C@@H]1CCO[C@](C)(c1ccccc1)c1ccc(Cl)cc1 [clemastine] | 41400 | 82100 | 152600 |  |  |  |  |  |  |  |  | 
CN1CCC[C@@H]1CCO[C@](C)(c1ccccc1)c1ccc(Cl)cc1 [Clemastine Fumarate, clemastine fumarate] |  |  |  | 24000 | 47000 | < 3000 | < 3000 | 5040 to 44200 | 8590 to 82100 | 5000 | 8600 | 9000
